Data reported in publication PMC6919601, “Identification of Plasmodium dipeptidyl aminopeptidase allosteric inhibitors by high throughput screening” (PLoS ONE, 2019).
The campaign covered roughly 110,000 compounds. About 230 (0.21%) showed an effect of 50% or more. The list shows a part of the results.

Each compound was assayed against DPAP1 (Plasmodium falciparum, UniProt Q8IIJ9) (assay: primary screen, percent inhibition; read by cleavage of a fluorogenic dipeptide substrate; higher = more effect of the substance).
Chain of DPAP1 (Q8IIJ9 whole entry, looked up): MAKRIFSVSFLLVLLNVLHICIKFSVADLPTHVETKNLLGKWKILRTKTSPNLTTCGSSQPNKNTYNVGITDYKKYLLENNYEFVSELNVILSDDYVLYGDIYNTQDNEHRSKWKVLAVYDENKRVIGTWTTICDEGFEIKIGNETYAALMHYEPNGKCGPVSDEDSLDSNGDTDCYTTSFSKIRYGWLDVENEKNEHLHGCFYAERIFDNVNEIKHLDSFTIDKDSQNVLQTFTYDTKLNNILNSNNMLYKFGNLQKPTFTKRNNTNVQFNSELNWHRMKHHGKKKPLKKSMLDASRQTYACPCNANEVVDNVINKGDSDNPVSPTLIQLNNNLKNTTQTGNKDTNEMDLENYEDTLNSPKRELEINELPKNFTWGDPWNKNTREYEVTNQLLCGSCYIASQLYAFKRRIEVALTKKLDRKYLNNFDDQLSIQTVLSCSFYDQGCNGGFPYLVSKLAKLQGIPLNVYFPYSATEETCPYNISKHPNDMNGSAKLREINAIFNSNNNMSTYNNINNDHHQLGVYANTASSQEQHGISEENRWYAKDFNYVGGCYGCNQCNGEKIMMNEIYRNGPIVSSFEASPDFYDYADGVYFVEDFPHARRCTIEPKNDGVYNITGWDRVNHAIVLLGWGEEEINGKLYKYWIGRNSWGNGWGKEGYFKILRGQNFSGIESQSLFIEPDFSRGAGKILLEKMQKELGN
Set-up: species or system P. falciparum D10 trophozoite lysates; single well
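Also: 30 min substrate incubation versus DMSO and 10 µM JCP410 controls.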

Row | SMILES | % Inhibition @ 10 uM [%]
1 | C=CCC(CS(=O)(=O)Cc1ccccc1)C(=O)N[C@@H](CC)C(=O)c1nc2ccccc2o1 (stereo partly shown) | -1.83
2 | CCOc1ccc(NC(=O)c2ccnn2CC)cc1 | -4.82
3 | O=C(CCC1CCCC1)Nc1ccccc1C(=O)O | -0.519
4 | CC1(C)CC(=O)C2=C(C1)OC(N)=C(C#N)C2c1ccc(Br)s1 (stereo not shown) | -1.38
5 | CCN(CCO)Cc1csc2ccc(Br)cc12 | 4.22
6 | CSc1ccc(CN2CCCC(CO)C2)cc1 (stereo not shown) | 4.22
7 | CCc1ccc(CN2CCN(C(=O)c3ccco3)CC2)cc1 | 1.7
8 | CCc1cc2c(ncn3cnnc23)s1 | -3.75
9 | CCN(CCN(C)C)C1CCN(C)CC1 | -4.75
10 | Cc1ccc(S(=O)(=O)N(CC(=O)NCCc2ccccc2)C2CCCCC2)cc1 | -2.15
11 | CC(C)(C)c1ccc(C(=O)NCCSc2ccccn2)cc1 | 5.58
12 | COc1ccc(C2NC(=O)C(O)=C2C(=O)c2ccc(Cl)cc2)cc1 (stereo not shown) | -4.16
13 | CCCc1ncc(C(O)c2ccccc2)n1C (stereo not shown) | -3.74
14 | CCCn1c(=O)c2c(nc3n2CCS3)n(C)c1=O | -6.43
15 | CCSc1cnn(C2CCCCC2)c(=O)c1O | 1.04
16 | COC(=O)c1cnn2c(O)c(Cc3ccccc3C)c(C)nc12 | -3.78
17 | Cc1ccccc1C1OC2(C(=O)c3ccccc3C2=O)C2C(=O)N(c3ccccc3)C(=O)C12 (stereo not shown) | 3.74
18 | CCC[C@H](NC(=O)[C@H]1CCCC[C@H]1NC(=O)c1ccc(-c2csc(N3CCN(C)CC3)n2)cc1)C(=O)c1nc2ccccc2o1 | -1.61
19 | COc1ccc(S(=O)(=O)N2CCC(NC(=O)NCC3CCCO3)CC2)cc1 (stereo not shown) | 2.29
20 | COc1cc(OC)cc(-c2nc3nc(C)c(CCC(=O)NCCCN4CCCC4=O)c(C)n3n2)c1 | -4.34
21 | Cc1nn(-c2ccc(Cl)cc2)c(O)c1/C=N/c1ccc(C(=O)O)c(O)c1 | -5.96
22 | Cc1ccc(NC(=O)/C=C/c2ccccc2)c(C)c1 | 3.82
23 | Cc1ccc(OC(C)c2nc(-c3ccc(Br)o3)no2)cc1C (stereo not shown) | -2.63
24 | CC(=O)c1cccc(NC(=O)c2ccco2)c1 | 0.392
25 | O=c1c2ccccc2n2c(-c3cccnc3)nnc2n1Cc1ccc(F)cc1 | 3.3
26 | CC(C)C[C@@H](NC(=O)c1cccc(NS(=O)(=O)c2ccc3oc4ccccc4c3c2)c1)C(=O)OCc1ccccc1 | -3.97

Row | SMILES | % Inhibition @ 10 uM [%]
27 | Cc1nc2ccccc2n1CCc1nc2c3ccccc3nc(SCC(=O)NCc3ccco3)n2n1 | -1.15
28 | O=C(Nc1ccc(Cl)cc1)Nc1cc(Cl)cc(Cl)c1 | 4.33
29 | CC1=C(C(=O)Nc2cccc(C)c2)C(c2ccc(Br)cc2)NC(=O)N1 (stereo not shown) | 0.219
30 | C=CCOc1ccc(C2c3c(n[nH]c3-c3ccccc3O)C(=O)N2Cc2cccnc2)cc1 (stereo not shown) | 1.67
31 | COc1cccc(C(=O)N2CCN(Cc3cccc(Cl)c3)CC2)c1 | 4.61
32 | O=C(O)CCS(=O)(=O)c1cccc2cccnc12 | -0.458
33 | COc1cc(CNc2ccccc2)cc(OC)c1OC | -2.03
34 | O=C(NCC1CCCO1)c1ccc2c(c1)ncn2-c1cccc(F)c1 (stereo not shown) | 1.2
35 | COc1ccc2nc(NC(=O)C3(S(=O)(=O)c4ccc(C)cc4)CC3)sc2c1 | -1.29
36 | O=c1nc2s/c(=C\C3=Cc4ccccc4OC3)c(=O)n2nc1Cc1ccc(Cl)cc1 | 5.5
37 | CCOc1ccc(C(=O)CSc2nc3ccccc3[nH]2)cc1[N+](=O)[O-] | 20.6
38 | CNC(=O)c1c(/N=C/c2ccccc2O)sc2c1CCCC2 | -2.98
39 | O=C(NC12CC3CC(CC(C3)C1)C2)C1CCS(=O)(=O)C1 (stereo not shown) | 0.528
40 | Cc1ccc(C(=O)Nc2ccc(N3CCCC3)c(Cl)c2)cc1 | -3.47
41 | O=C(NCc1ccc2c(c1)OCO2)c1cc(-c2ccccc2)nc2ccccc12 | -3.94
42 | O=C1/C(=C\c2ccco2)N2CCC1CC2 | -1.29
43 | O=C(CSC(=S)N1CCOCC1)c1ccccc1 | -1.99
44 | O=C(Cn1ncc2ccccc2c1=O)Nc1nnc(CC(=O)N2CCOCC2)s1 | -2.84
45 | COc1ccc(-c2nc3ccccc3c(=O)n2-c2cccnc2)cc1 | 2.43
46 | COc1cccc(CSc2nc3ccccc3c3nc(CCn4nc(C)cc4C)nn23)c1 | 2.73
47 | O=[N+]([O-])c1ccc(CSc2ccc(Cl)cc2)cc1 | 2.22
48 | CC(=O)Nc1cccc(NC(=O)c2ccccc2F)c1 | -8.76
49 | COc1cccc(Oc2cc(O)nc(N)n2)c1 | -0.436
50 | COc1ccccc1CNC(=O)c1cccc(F)c1 | -4.15
51 | COC(=O)C1=CN(C)C=C(C(=O)OC)C1c1ccc(OC)c(Br)c1 | -1.48
52 | Cc1c(CNCc2cccnc2)c(C(=O)O)c(C)n1Cc1ccccc1F | -0.23
